# Test results from a collection of fitness landscapes (doi:10.1016/j.celrep.2020.107928).
# The full ranking holds about 81,000 sequences; the median of “one-hybrid fitness for binding NBS DNA” is about -0.1, and the highest 2% start at about 0.36. The list shows a part of the results.
# B1: Caulobacter ParB omega fusion; a variant is named by its letters at X, in order, B8GW30 (parent)
# chain: MESVVVGEPGMSEGRRGLGRGLSALLGEVDAAPAQAPGEQLGGSREAPIEILQRNPDQPRRTFREEDLEDLSNSIREKGVLQPILVRPSPDTAGEYQIVAGERAWRAAQRAGLKTVPIMVRELDDLAVLEIGIIENVQRADLNVLEEALSYKVLMEKFERTQENIAQTIGKSXSHVANXMRLLXLPDEVQSYLVSGELTAXHARAIAAAADPVALAKQIIEGGLSVRETEALARKAPNLSAGKSKGGRPPRVKDTDTQALESDLSSVLGLDVSIDHRGSTGTLTITYATLEQLDDLCNRLTRGI
# Variants of: B1
# Assay: one-hybrid fitness for binding NBS DNA (the Noc-binding site; scaled: cognate 1, non-cognate 0); higher = stronger binding
# Settings: with NBS DNA site
# Summary of the method: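 On M9-minus-histidine containing 0.1 mM IPTG and 5 mM 3-AT, E. coli USO cells with a HIS3 reporter, site 19 bp from the promoter, grew 48 hours at 37°C to select Caulobacter ParB libraries randomised at four specificity codons. Plasmids from before and after were Illumina-sequenced, with three replicate libraries pooled and variants under 10 reads left out. Fitness is the log change in variant-to-wild-type read ratio, rescaled against cognate and non-cognate.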
row,Variant,one-hybrid fitness for binding NBS DNA
1,AYKT,≤ 0.2
2,LPEY,≤ 0.2
3,KHYV,≤ 0.2
4,HPCG,≤ 0.2
5,PYLM,≤ 0.2
6,RVST,0.463
7,TKRW,≤ 0.2
8,ICLF,≤ 0.2
9,EDLC,≤ 0.2
10,QGKS,≤ 0.2
11,CRQA,≤ 0.2
12,HACA,≤ 0.2
13,ELMD,≤ 0.2
14,CHQG,≤ 0.2
15,DYLR,≤ 0.2
16,FVGG,≤ 0.2
17,GREM,≤ 0.2
18,ELDC,≤ 0.2
19,CWSG,≤ 0.2
20,WQEV,≤ 0.2
21,EYLT,≤ 0.2
22,TYNP,≤ 0.2
23,PLLF,≤ 0.2
24,IPQG,≤ 0.2

row,Variant,one-hybrid fitness for binding NBS DNA
1,RSLT,0.292
2,NMWR,≤ 0.2
3,VEIG,≤ 0.2
4,FEMS,≤ 0.2
5,RYAC,≤ 0.2
6,NPMM,≤ 0.2
7,QLTS,0.307
8,TDVV,≤ 0.2
9,ALRH,≤ 0.2
10,LWRR,≤ 0.2
11,LIHM,≤ 0.2
12,AHAP,≤ 0.2
13,HEQR,≤ 0.2
14,PKPQ,≤ 0.2
15,RATR,0.43
16,TTHV,≤ 0.2
17,VSPW,≤ 0.2
18,TDIF,≤ 0.2
19,DQYT,≤ 0.2
20,IGGI,≤ 0.2
21,YAHT,≤ 0.2
22,RDFI,≤ 0.2
23,PRRR,0.286
24,MSSV,≤ 0.2

row,Variant,one-hybrid fitness for binding NBS DNA
1,FDWS,≤ 0.2
2,QRTY,0.519
3,PYYI,≤ 0.2
4,RVNA,0.261
5,ARCN,≤ 0.2
6,VIKS,≤ 0.2
7,LVCF,≤ 0.2
8,GLYC,≤ 0.2
9,VISI,≤ 0.2
10,MTMR,≤ 0.2
11,DVSF,≤ 0.2
12,PLPY,≤ 0.2
13,GPQS,≤ 0.2
14,KVTT,≤ 0.2
15,GCMG,≤ 0.2
16,NISR,≤ 0.2
17,ISSC,≤ 0.2
18,CYMC,≤ 0.2
19,KNRD,≤ 0.2
20,FWGS,≤ 0.2
21,RHQS,0.455
22,QMFR,0.431
23,VADL,≤ 0.2
24,FCIS,≤ 0.2

row,Variant,one-hybrid fitness for binding NBS DNA
1,VGQL,≤ 0.2
2,RIEN,≤ 0.2
3,YWPS,≤ 0.2
4,HRQA,≤ 0.2
5,TRHR,0.409
6,RCPI,≤ 0.2
7,TLVQ,≤ 0.2
8,AQPG,≤ 0.2
9,IITT,≤ 0.2
10,IVFS,≤ 0.2
11,SDFY,≤ 0.2
12,EKDT,≤ 0.2
13,PNLC,≤ 0.2
14,QVVQ,0.234
15,CWCS,≤ 0.2
16,SKFR,≤ 0.2
17,FSRD,≤ 0.2
18,VSCC,≤ 0.2
19,NFLG,≤ 0.2
20,KAKG,≤ 0.2
21,DTFG,≤ 0.2
22,DGRL,≤ 0.2
23,PHCT,≤ 0.2
24,LFAC,≤ 0.2

row,Variant,one-hybrid fitness for binding NBS DNA
1,TVLY,≤ 0.2
2,LLMQ,≤ 0.2
3,QTEI,≤ 0.2
4,SFGH,≤ 0.2
5,CGTS,≤ 0.2
6,TNHL,≤ 0.2
7,FQYT,≤ 0.2
8,RQEA,≤ 0.2
9,HQAR,≤ 0.2
10,DPQC,≤ 0.2
11,KRPG,≤ 0.2
12,IASH,≤ 0.2
13,PVCQ,≤ 0.2
14,GQYT,≤ 0.2
15,SKTR,≤ 0.2
16,TQLY,≤ 0.2
17,GRVW,≤ 0.2
18,LGVT,≤ 0.2
19,TPWW,≤ 0.2
20,SNKN,≤ 0.2
21,YQTT,≤ 0.2
22,PAVS,≤ 0.2
23,VNSE,≤ 0.2
24,NTHR,≤ 0.2

row,Variant,one-hybrid fitness for binding NBS DNA
1,TIDR,≤ 0.2
2,FLFG,≤ 0.2
3,NRWR,≤ 0.2
4,RSWN,≤ 0.2
5,ALNG,≤ 0.2
6,SIAG,≤ 0.2
7,LMLT,≤ 0.2
8,YGAA,≤ 0.2
9,SHPA,≤ 0.2
10,SFQY,≤ 0.2
11,SRTN,≤ 0.2
12,SQLG,≤ 0.2
13,PHLM,≤ 0.2
14,WTET,≤ 0.2
15,TLYF,≤ 0.2
16,QFHV,≤ 0.2
17,KKYF,≤ 0.2
18,QPSC,≤ 0.2
19,RLKF,≤ 0.2
20,GKNS,≤ 0.2
21,GMTI,≤ 0.2
22,RKQA,0.291
23,AGGE,≤ 0.2
24,HRTQ,≤ 0.2

row,Variant,one-hybrid fitness for binding NBS DNA
1,QSGK,≤ 0.2
2,CHWR,≤ 0.2
3,VQYA,≤ 0.2
4,QQGS,0.443
5,DVWG,≤ 0.2
6,LGVA,≤ 0.2
7,RISW,≤ 0.2
8,SSPH,≤ 0.2
9,GPRL,≤ 0.2
10,NLCF,≤ 0.2
11,VRMR,0.218
12,DHTV,≤ 0.2
13,THPI,≤ 0.2
14,FYMA,≤ 0.2
15,GKKY,≤ 0.2
16,IYMR,≤ 0.2
17,ARQG,≤ 0.2
18,GNNS,≤ 0.2
19,TCQG,≤ 0.2
20,HRGS,≤ 0.2
21,IAAS,≤ 0.2
22,SAPR,≤ 0.2
23,NHLC,≤ 0.2
24,SDSW,≤ 0.2

row,Variant,one-hybrid fitness for binding NBS DNA
1,EPRL,≤ 0.2
2,DMTL,≤ 0.2
3,PKWF,≤ 0.2
4,NVLG,≤ 0.2
5,PNNN,≤ 0.2
6,TSEP,≤ 0.2
7,RVRC,0.32
8,LNPI,≤ 0.2
9,SNLR,≤ 0.2
10,GAPS,≤ 0.2
11,VTRC,≤ 0.2
12,KREC,≤ 0.2
13,SGSM,≤ 0.2
14,YGAE,≤ 0.2
15,DPTQ,≤ 0.2
16,RGHV,≤ 0.2
17,WREV,≤ 0.2
18,CQEC,≤ 0.2
19,DWRG,≤ 0.2
20,VFEC,≤ 0.2
21,KKVC,≤ 0.2
22,SGQC,≤ 0.2
23,EAMS,≤ 0.2
24,CLYM,≤ 0.2

row,Variant,one-hybrid fitness for binding NBS DNA
1,LMWT,≤ 0.2
2,RHPL,≤ 0.2
3,REFP,≤ 0.2
4,LCNW,≤ 0.2
5,EPHL,≤ 0.2
6,CLVR,≤ 0.2
7,VPLF,≤ 0.2
8,YPLN,≤ 0.2
9,ETSR,≤ 0.2
10,PPEI,≤ 0.2
11,TSIR,≤ 0.2
12,WCSS,≤ 0.2
13,WAKA,≤ 0.2
14,KRQA,0.349
15,DGGR,≤ 0.2
16,QGPR,≤ 0.2
17,DPHG,≤ 0.2
18,WYIG,≤ 0.2
19,PLCS,≤ 0.2
20,KSLD,≤ 0.2
21,GDAG,≤ 0.2
22,LTDC,≤ 0.2
23,RCVI,≤ 0.2
24,DSFM,≤ 0.2

row,Variant,one-hybrid fitness for binding NBS DNA
1,RHNI,≤ 0.2
2,WSFA,≤ 0.2
3,DDNL,≤ 0.2
4,VMSH,≤ 0.2
5,HAEV,≤ 0.2
6,RQGK,≤ 0.2
7,MLAV,≤ 0.2
8,QVCA,≤ 0.2
9,GWTS,≤ 0.2
10,DCHF,≤ 0.2
11,VPTN,≤ 0.2
12,TMHV,≤ 0.2
13,TSYS,≤ 0.2
14,RYKI,≤ 0.2
15,AEGV,≤ 0.2
16,MNCG,≤ 0.2
17,HSYS,≤ 0.2
18,RSEC,≤ 0.2
19,TQNL,≤ 0.2
20,ESVC,≤ 0.2
21,DEKH,≤ 0.2
22,PCLG,≤ 0.2
23,SMPS,≤ 0.2
24,AFKA,≤ 0.2

row,Variant,one-hybrid fitness for binding NBS DNA
1,NRNW,≤ 0.2
2,DSRS,≤ 0.2
3,AVAA,≤ 0.2
4,HELI,≤ 0.2
5,MAVV,≤ 0.2
6,VNAV,≤ 0.2
7,FCPR,≤ 0.2
8,PNEF,≤ 0.2
9,ACAG,≤ 0.2
10,EHSF,≤ 0.2
11,ERCI,≤ 0.2
12,SDMG,≤ 0.2
13,GLKG,≤ 0.2
14,TSGP,≤ 0.2
15,QGPM,≤ 0.2
16,MPTS,≤ 0.2
17,HRDA,≤ 0.2
18,RLVK,≤ 0.2
19,YTYL,≤ 0.2
20,HFVM,≤ 0.2
21,DCRL,0.405
22,HCAL,≤ 0.2
23,MPNC,≤ 0.2
24,NNSW,≤ 0.2

row,Variant,one-hybrid fitness for binding NBS DNA
1,TKPY,≤ 0.2
2,GFKI,≤ 0.2
3,HDIS,≤ 0.2
4,NLYT,≤ 0.2
5,KRNA,0.384
6,RIIE,≤ 0.2
7,SSNR,≤ 0.2
8,NPLT,≤ 0.2
9,SMAM,≤ 0.2
10,AGNR,≤ 0.2
11,IKNV,≤ 0.2
12,GQNY,≤ 0.2
13,QSRA,0.516
14,STRT,≤ 0.2
15,FIWL,≤ 0.2
16,KAIS,≤ 0.2
17,ARPN,≤ 0.2
18,QLQC,≤ 0.2
19,WLSW,≤ 0.2
20,SPYW,≤ 0.2
21,QWIR,0.209
22,KQAM,≤ 0.2
23,HIAT,≤ 0.2
24,TGAH,≤ 0.2

row,Variant,one-hybrid fitness for binding NBS DNA
1,DADS,≤ 0.2
2,RVHG,≤ 0.2
3,IRKA,0.256
4,TSIS,≤ 0.2
5,AVTP,≤ 0.2
6,CYDC,≤ 0.2
7,NKNT,≤ 0.2
8,VITI,≤ 0.2
9,QRMN,0.295
10,NNCR,≤ 0.2
11,RMYC,≤ 0.2
12,SKVM,≤ 0.2
13,LSPT,≤ 0.2
14,GSLA,≤ 0.2
15,RATY,≤ 0.2
16,NPAS,≤ 0.2
17,GPPV,≤ 0.2
18,TQYV,≤ 0.2
